Some of the results follow. Single values of this set are uncertain. Values with irradiation are relative to irradiated vehicle.
Key:
A549-Dual [1] = assay: NF-kB reporter (SEAP) activity, viability-corrected, relative to vehicle (fold change vs vehicle); higher = more activation of STING-IRF / NF-kB immune response reporter; settings: 10 µM
A549-Dual [2] = assay: ISRE reporter (Lucia luciferase) activity, viability-corrected, relative to vehicle (fold change vs vehicle); higher = more activation of STING-IRF / NF-kB immune response reporter; settings: 10 µM
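For NF-kB reporter (SEAP) activity, viability-corrected, relative to vehicle in this document: viability correction based on the alamar blue assay, with concentrations leaving 10% survival or less dropped.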

Compound	NF-kB reporter (A549-Dual [1]; irradiation: 8 Gy/4 fr)	NF-kB reporter (A549-Dual [1]; irradiation: none)	ISRE reporter (A549-Dual [2]; irradiation: 8 Gy/4 fr)	ISRE reporter (A549-Dual [2]; irradiation: none)
CCC(=O)OC1(C(=O)CCl)C(C)CC2C3CCC4=CC(=O)C=CC4(C)C3(F)C(O)CC21C (stereo unspecified) [Clobetasol propionate]	0.724	1.05	0.136	0.421
Cc1ncc(COP(=O)(O)O)c(C=O)c1O [Pyridoxal phosphate]	0.864	0.857	0.823	0.77
COc1cc(O)c2c(c1)oc(=O)c1c3cc(O)c(O)cc3oc21 [Wedelolactone]	0.682	0.887	0.308	0.38
C=C1C(CO)C(O)CC1n1cnc2c(=O)nc(N)[nH]c21.O (stereo unspecified) [Entecavir Hydrate]	0.772	0.869	0.758	0.76
Cc1ccc(=O)n(-c2ccccc2)c1 [Pirfenidone]	0.805	0.62	0.751	0.62
COc1cc2ccc(=O)oc2cc1O [Scopoletin]	0.794	0.595	0.105	0.171
O=C(O)c1cc(O)c2c(c1)C(C1c3cc(C(=O)O)cc(O)c3C(=O)c3c(OC4OC(CO)C(O)C(O)C4O)cccc31)c1cccc(OC3OC(CO)C(O)C(O)C3O)c1C2=O (stereo unspecified) [Sennoside A]	1.36	0.951	1.3	0.859
Oc1cc(O)c2c(c1)OC(c1ccc(O)c(O)c1)C(O)C2 (single isomer, unassigned; (-)) [(-)Epicatechin]	1.41	0.929	1.26	0.652
CC1(C)SC2C(NC(=O)C(N)c3ccc(O)cc3)C(=O)N2C1C(=O)O.O.O.O (stereo unspecified) [Amoxicillin trihydrate]	0.952	0.873	0.727	0.574
Nc1ncnc2c1ncn2C1OC(COP(=O)(O)OP(=O)([O-])OP(=O)([O-])O)C(O)C1O.[Na+].[Na+] (stereo unspecified) [Adenosine disodium triphosphate]	1.03	0.62	0.976	0.569
Cl.N=C(N)NC(=O)c1nc(Cl)c(N)nc1N [Amiloride HCl]	0.844	0.806	0.833	0.996
COc1ccc(-c2nc3cc(C4=NNC(=O)CC4C)ccc3[nH]2)cc1 (stereo unspecified) [Pimobendan]	2.72	7.1	2.35	8.62
CCCCCCCCCCCCCCCCCC(=O)O [Stearic acid]	0.773	0.652	0.645	0.505
CC(C)(Oc1ccc(Cl)cc1)C(=O)O [Clofibric Acid]	1.22	0.82	1.02	0.656
Cc1cccc(C)c1OCC(=O)NC(Cc1ccccc1)C(O)CC(Cc1ccccc1)NC(=O)C(C(C)C)N1CCCNC1=O (stereo unspecified) [Lopinavir]	0.617	0.68	0.598	0.869
CC(C)C(=O)c1c(C(C)C)nn2ccccc12 [Ibudilast]	0.878	0.959	0.813	0.817
CC1OC(OCC2OC(Oc3c(-c4ccc(O)c(O)c4)oc4cc(O)cc(O)c4c3=O)C(O)C(O)C2O)C(O)C(O)C1O (stereo unspecified) [Rutin]	0.799	1.08	0.774	0.85
C[n+]1cccc(C(=O)O)c1.[Cl-] [Trigonelline Hydrochloride]	0.687	0.684	0.606	0.52
Cn1nnc(-c2ccc(-c3ccc(N4CC(CO)OC4=O)cc3F)cn2)n1 (stereo unspecified) [Tedizolid]	0.707	1.37	0.523	1.03
Cc1cccc(C)c1OCC(C)N.Cl (stereo unspecified) [Mexiletine HCl]	0.995	0.794	0.943	0.711
N=C(N)Nc1nc(CSCCC(=N)NS(N)(=O)=O)cs1 [Famotidine]	0.842	1.02	0.754	0.76
CC(=O)c1c(O)c(C)c(O)c2c1OC1=CC(=O)C(C(C)=O)C(=O)C12C (stereo unspecified) [Usnic acid]	0.653	0.796	0.57	0.46
NS(=O)(=O)c1ccc(C(=O)O)cc1 [Carzenide]	0.844	0.685	0.585	0.412
COc1cc(/C=C/C(=O)O)ccc1O [Ferulic Acid]	0.74	0.558	0.768	0.526
O=C[C@H](O)[C@@H](O)[C@@H](O)CO [L-(+)-Arabinose]	1.62	0.687	1.74	0.722
C=CCN1CCCC1CNC(=O)c1cc2nn[nH]c2cc1OC.Cl (stereo unspecified) [Alizapride HCl]	0.798	0.975	0.702	0.504
COc1ccccc1N1CCN(CC(O)COc2cccc3ccccc23)CC1 (stereo unspecified) [Naftopidil]	1.09	0.669	1.12	0.583

Compound	NF-kB reporter (A549-Dual [1]; irradiation: 8 Gy/4 fr)	NF-kB reporter (A549-Dual [1]; irradiation: none)	ISRE reporter (A549-Dual [2]; irradiation: 8 Gy/4 fr)	ISRE reporter (A549-Dual [2]; irradiation: none)
CCC1OC(=O)C(C)C(OC2CC(C)(OC)C(O)C(C)O2)C(C)C(OC2OC(C)CC(N(C)C)C2O)C(C)(O)CC(C)C(=O)C(C)C(O)C1(C)O (stereo unspecified) [Erythromycin]	0.933	0.973	1.05	0.857
CC1C/C=C/C=C/C=C/C=C/C(OC2OC(C)C(O)C(N)C2O)CC2OC(O)(CC(O)CC3OC3/C=C/C(=O)O1)CC(O)C2C(=O)O (stereo unspecified) [Natamycin]	0.78	0.967	0.792	0.787
Clc1ccc(COC(Cn2ccnc2)c2ccc(Cl)cc2Cl)c(Cl)c1 (stereo unspecified) [Miconazole]	0.535	0.693	0.52	0.53
CC(O)C(O)C1CNc2nc(N)[nH]c(=O)c2N1.Cl.Cl (stereo unspecified) [Sapropterin Dihydrochloride]	0.751	0.864	0.876	0.746
NC(CSCCCO)C(=O)O (stereo unspecified) [Fudosteine]	0.741	0.678	0.91	0.694
CCN(CC)C(=O)c1cccnc1 [Nikethamide]	1.39	0.673	1.39	0.657
C#CC1(O)CCC2C3CCC4=CC(=O)CCC4C3C(=C)CC21CC (stereo unspecified) [Etonogestrel]	0.427	0.909	0.211	0.4
C=C1C(=O)OC2C1CC/C(C)=C/CCC1(C)OC21 (single isomer, unassigned; (-)) [(-)-Parthenolide]	1.11	0.503	0.547	0.362
CCCCCC(O)/C=C/C1C(O)CC(=O)C1C/C=C\CCCC(=O)O (stereo unspecified) [Prostaglandin E2 (PGE2)]	0.794	0.927	0.687	0.735
Cl.OC(CCCN1CCCCC1)(c1ccccc1)c1ccccc1 [Diphenidol HCl]	0.784	1.3	0.84	0.823
CC(CN1CC(=O)NC(=O)C1)N1CC(=O)NC(=O)C1.Cl (stereo unspecified) [Dexrazoxane HCl (ICRF-187, ADR-529)]	0.835	1.75	0.844	4.78
CC(C)NCC(O)COc1ccc(COCCOC(C)C)cc1.O=C(O)/C=C/C(=O)O (stereo unspecified) [Bisoprolol fumarate]	0.703	0.944	0.787	0.659
Cn1c(=O)c2c(ncn2CC2OCCO2)n(C)c1=O [Doxofylline]	0.573	0.605	0.704	0.611
C=CC1(C)CC(OC(=O)CSCCN(CC)CC)C2(C)C(C)CCC3(CCC(=O)C32)C(C)C1O.O=C(O)/C=C/C(=O)O (stereo unspecified) [Tiamulin fumarate]	0.676	1.1	0.635	0.846
CCCCCOc1ccc(-c2cc(-c3ccc(C(=O)NC4CC(O)C(O)NC(=O)C5C(O)C(C)CN5C(=O)C(C(O)CC(N)=O)NC(=O)C(C(O)C(O)c5ccc(O)c(OS(=O)(=O)[O][Na])c5)NC(=O)C5CC(O)CN5C(=O)C(C(C)O)NC4=O)cc3)no2)cc1 (stereo unspecified) [Micafungin Sodium]	0.923	0.865	0.801	0.985
CCN1CCN(C(=O)NC(C(=O)NC2C(=O)N3C(C(=O)O)=C(CSc4nnnn4C)CSC23)c2ccc(O)cc2)C(=O)C1=O (stereo unspecified) [Cefoperazone]	0.638	0.822	0.762	0.764
CN1CCN(CCCN2c3ccccc3Sc3ccc(C(F)(F)F)cc32)CC1.Cl.Cl [Trifluoperazine 2HCl]	0.764	1.07	0.807	1.61
Cc1cccc(C)c1NC(=O)C1CCCCN1C (stereo unspecified) [Mepivacaine]	0.488	1.08	0.531	0.681
CC(=O)NC(CS)C(=O)O (stereo unspecified) [Acetylcysteine]	1.05	1.07	1.01	0.871
COc1ccc2cc3[n+](cc2c1OC)CCc1cc2c(cc1-3)OCO2.O=S(=O)([O-])O [Berberine Sulfate]	0.55	1.33	0.168	0.676
CCOc1cc(N)c([N+](=O)[O-])cc1C(=O)NC1CCN(CC2CC=CCC2)CC1.O=C(O)C(O)C(O)C(=O)O (stereo unspecified) [Cinitapride Hydrogen Tartrate]	0.97	0.704	1.3	1.08
CC(Cn1cnc2c(N)ncnc21)OCP(=O)(O)O (stereo unspecified) [Tenofovir]	0.555	0.958	0.574	0.754
COc1c2c(cc3oc(CO)cc(=O)c13)OC(C(C)(C)O)C2 (stereo unspecified) [Cimifugin]	1.94	3.29	2.05	8.35
COC1(NC(=O)Cc2cccs2)C(=O)N2C(C(=O)O)=C(COC(N)=O)CSC21 (stereo unspecified) [Cefoxitin]	0.685	0.965	0.725	0.829
O=C(O)Cc1ccc(-c2ccccc2)cc1 [4-Biphenylacetic acid]	0.883	1.01	0.912	0.78
C=CC1CC1(NC(=O)C1CC(Oc2ncc(OC)c3ccc(Cl)cc23)CN1C(=O)C(NC(=O)OC(C)(C)C)C(C)(C)C)C(=O)NS(=O)(=O)C1CC1 (stereo unspecified) [Asunaprevir]	0.654	1.44	0.686	2.39
CNCc1cc(-c2ccccc2F)n(S(=O)(=O)c2cccnc2)c1.O=C(O)/C=C/C(=O)O [Vonoprazan Fumarate (TAK-438)]	0.987	1.25	1.16	1.12

Source: the supplement of paper PMC9174493
